The full ranking holds about 81,000 sequences; the median of “one-hybrid fitness for binding parS DNA” is about -0.17, and the highest 2% start at about 0.51. Some of the results follow.
B1: Caulobacter ParB omega fusion; a variant is named by its letters at X, in order, B8GW30 (parent)
chain: MESVVVGEPGMSEGRRGLGRGLSALLGEVDAAPAQAPGEQLGGSREAPIEILQRNPDQPRRTFREEDLEDLSNSIREKGVLQPILVRPSPDTAGEYQIVAGERAWRAAQRAGLKTVPIMVRELDDLAVLEIGIIENVQRADLNVLEEALSYKVLMEKFERTQENIAQTIGKSXSHVANXMRLLXLPDEVQSYLVSGELTAXHARAIAAAADPVALAKQIIEGGLSVRETEALARKAPNLSAGKSKGGRPPRVKDTDTQALESDLSSVLGLDVSIDHRGSTGTLTITYATLEQLDDLCNRLTRGI

Variants of: B1
Experiment: one-hybrid fitness for binding parS DNA (scaled: cognate 1, non-cognate 0); higher = stronger binding
Conditions: with parS DNA site
In short: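 Selection: bacterial one-hybrid in E. coli USO, HIS3 reporter with the site 19 bp from the promoter, 48 hours at 37°C on M9-minus-histidine plus 0.1 mM IPTG and 5 mM 3-AT. Libraries were Caulobacter ParB with four randomised specificity codons, sequenced on Illumina before and after selection. Fitness is the rescaled log change in variant-to-wild-type read ratio, anchored to the cognate and non-cognate sites.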

Variant	one-hybrid fitness for binding parS DNA
MKRR	≤ 0.2
WFRS	≤ 0.2
KRNE	≤ 0.2
PTCE	≤ 0.2
WHMR	≤ 0.2
AGDA	≤ 0.2
QLFT	≤ 0.2
QSPV	≤ 0.2
DQLT	≤ 0.2
VEAC	≤ 0.2
MEPY	≤ 0.2
PFSC	≤ 0.2
TFAI	≤ 0.2
TNAG	≤ 0.2
YPRM	≤ 0.2
MYGR	≤ 0.2
VWSN	≤ 0.2
YTTC	≤ 0.2
IARE	≤ 0.2
SKVQ	≤ 0.2
SPNV	≤ 0.2
VKQS	≤ 0.2
AHVE	≤ 0.2
FHTC	≤ 0.2
GPMQ	≤ 0.2

Variant	one-hybrid fitness for binding parS DNA
QPWT	≤ 0.2
SHVV	≤ 0.2
YDSA	≤ 0.2
PDLD	≤ 0.2
QMEV	≤ 0.2
KGTN	≤ 0.2
HTAA	≤ 0.2
QFWF	≤ 0.2
DGVR	≤ 0.2
WYYL	≤ 0.2
LEDG	≤ 0.2
QQNT	≤ 0.2
QGAH	≤ 0.2
NDCS	≤ 0.2
FQLA	≤ 0.2
RASQ	≤ 0.2
HSAP	≤ 0.2
RKAE	≤ 0.2
IPRS	≤ 0.2
KKHG	≤ 0.2
PFTV	≤ 0.2
LVYI	≤ 0.2
EFPK	≤ 0.2
WHTR	≤ 0.2
GCPK	≤ 0.2

Variant	one-hybrid fitness for binding parS DNA
KHHF	≤ 0.2
GHCS	≤ 0.2
GILG	≤ 0.2
DHGG	≤ 0.2
VGIT	≤ 0.2
APNN	≤ 0.2
PHGT	≤ 0.2
YHDR	≤ 0.2
NWTR	≤ 0.2
LQTA	≤ 0.2
CVLI	≤ 0.2
DKAD	≤ 0.2
PNRG	≤ 0.2
MGDS	≤ 0.2
ARHA	≤ 0.2
LLRF	≤ 0.2
PLSV	≤ 0.2
TQEC	≤ 0.2
VRTL	≤ 0.2
DADM	≤ 0.2
VRKS	≤ 0.2
RVTI	≤ 0.2
GCTS	≤ 0.2
PSDG	≤ 0.2
NVEG	≤ 0.2

Variant	one-hybrid fitness for binding parS DNA
LGRQ	≤ 0.2
CRGV	≤ 0.2
NAMT	≤ 0.2
IFCS	≤ 0.2
RDLW	≤ 0.2
RCGV	≤ 0.2
GNQR	≤ 0.2
NHLT	≤ 0.2
TMIR	≤ 0.2
TMQT	≤ 0.2
MSGR	≤ 0.2
TFRN	≤ 0.2
IYDK	≤ 0.2
SSFF	≤ 0.2
QSPC	≤ 0.2
LHRQ	≤ 0.2
MILE	≤ 0.2
LEQS	≤ 0.2
NVRM	≤ 0.2
LAVN	≤ 0.2
DDCS	≤ 0.2
FGNS	≤ 0.2
TYWC	≤ 0.2
FVRV	≤ 0.2
WTSG	≤ 0.2

Variant	one-hybrid fitness for binding parS DNA
MMWR	≤ 0.2
FNFV	≤ 0.2
ITSV	≤ 0.2
PEMV	≤ 0.2
LHRK	≤ 0.2
PGRH	≤ 0.2
TCSN	≤ 0.2
DRMS	≤ 0.2
WAPI	≤ 0.2
TDTE	≤ 0.2
RKHF	≤ 0.2
RWMK	≤ 0.2
LPKH	≤ 0.2
VHGT	≤ 0.2
CPIC	≤ 0.2
QKNM	≤ 0.2
IGLI	≤ 0.2
LEEG	≤ 0.2
TGNW	≤ 0.2
VPVV	≤ 0.2
HYCT	≤ 0.2
RWPL	≤ 0.2
MMNF	≤ 0.2
EKPR	≤ 0.2
CMRW	≤ 0.2

Variant	one-hybrid fitness for binding parS DNA
SANF	≤ 0.2
HRCK	≤ 0.2
IEGT	≤ 0.2
WGVG	≤ 0.2
LITE	≤ 0.2
VLYW	≤ 0.2
QRRI	≤ 0.2
RDIR	≤ 0.2
AADE	≤ 0.2
ERLC	≤ 0.2
QEWA	≤ 0.2
TNNR	≤ 0.2
SAKS	≤ 0.2
MLHK	≤ 0.2
LTKF	≤ 0.2
FAGV	≤ 0.2
PIYV	≤ 0.2
PQPK	≤ 0.2
VSRT	≤ 0.2
KTWL	≤ 0.2
YSDV	≤ 0.2
CVGR	≤ 0.2
TIQI	≤ 0.2
QMIE	≤ 0.2
RAIF	≤ 0.2

Variant	one-hybrid fitness for binding parS DNA
RQSF	≤ 0.2
VASI	≤ 0.2
QSWY	≤ 0.2
WAPR	≤ 0.2
PWAW	≤ 0.2
LQGM	≤ 0.2
SLST	≤ 0.2
HEGR	≤ 0.2
CIQS	≤ 0.2
PWYI	≤ 0.2
CLGA	≤ 0.2
RMAL	≤ 0.2
DRMR	≤ 0.2
QDGL	≤ 0.2
INIY	≤ 0.2
HVGS	≤ 0.2
VDMT	≤ 0.2
MYYS	≤ 0.2
YMHA	≤ 0.2
THIR	≤ 0.2
QKVG	≤ 0.2
YLTS	≤ 0.2
KVWM	≤ 0.2
TTRA	≤ 0.2
FPVS	≤ 0.2

Variant	one-hybrid fitness for binding parS DNA
WRHT	≤ 0.2
RQCS	0.976
QICW	≤ 0.2
LYER	≤ 0.2
QRDW	≤ 0.2
HFKC	≤ 0.2
CEKE	≤ 0.2
NPIH	≤ 0.2
TVRD	≤ 0.2
TGTI	≤ 0.2
MVNC	≤ 0.2
RILM	0.333
IYRS	≤ 0.2
PFVT	≤ 0.2
WGKM	≤ 0.2
TESM	≤ 0.2
YKSY	≤ 0.2
SRTL	≤ 0.2
NKNV	≤ 0.2
NLNL	≤ 0.2
